Experimental findings from publication PMC9834212 are described below.

The chains behind the UniProt entries cited, without tags or fusion partners.
UniProt P13861: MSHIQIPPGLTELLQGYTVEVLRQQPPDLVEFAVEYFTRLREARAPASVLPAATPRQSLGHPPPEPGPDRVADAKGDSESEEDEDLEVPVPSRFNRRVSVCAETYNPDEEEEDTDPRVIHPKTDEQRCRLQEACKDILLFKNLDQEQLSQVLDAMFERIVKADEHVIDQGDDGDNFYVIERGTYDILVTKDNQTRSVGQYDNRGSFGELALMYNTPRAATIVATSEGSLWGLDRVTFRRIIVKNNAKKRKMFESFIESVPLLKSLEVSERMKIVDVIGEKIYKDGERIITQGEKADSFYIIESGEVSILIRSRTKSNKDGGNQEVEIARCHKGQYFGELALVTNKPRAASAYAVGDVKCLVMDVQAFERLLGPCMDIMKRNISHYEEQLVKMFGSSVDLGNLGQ
UniProt P31323: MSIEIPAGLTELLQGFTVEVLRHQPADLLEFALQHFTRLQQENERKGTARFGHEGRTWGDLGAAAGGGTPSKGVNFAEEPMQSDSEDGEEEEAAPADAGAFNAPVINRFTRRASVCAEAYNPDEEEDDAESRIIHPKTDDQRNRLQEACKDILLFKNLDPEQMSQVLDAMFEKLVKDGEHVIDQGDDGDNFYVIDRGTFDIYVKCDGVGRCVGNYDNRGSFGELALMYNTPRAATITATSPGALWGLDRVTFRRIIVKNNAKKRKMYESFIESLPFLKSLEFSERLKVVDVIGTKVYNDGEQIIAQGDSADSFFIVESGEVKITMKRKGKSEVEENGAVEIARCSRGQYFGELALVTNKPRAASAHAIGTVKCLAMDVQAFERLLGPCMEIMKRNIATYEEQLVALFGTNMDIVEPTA

Results are given in words; binding and its absence hold for the method and conditions named. Binding seen in cells or lysates may run through a third protein. Some entries that bind do so weakly or less than the wild type. For part of these data: Tags and fused reporters may be left off the sequences shown.

In assay [1] the target is PKA RIIα-Flag (UniProt P13861). Nature of the assay: co-IP; PKA regulatory subunit-Flag and HA-ZNF185 (or its deletion mutant, or HA-mZfp185) overexpressed in HEK293T cells; lysates on anti-FLAG M2 affinity gel for 1 h at 4 °C; blots.
In assay [2] the target is PKA RIIβ-Flag (UniProt P31323). The description is as above.
The target of assay [3] is T1, Myc-ZNF185 C-terminal fragment (aa 501–689) (human) (UniProt O15231).
T1 sequence: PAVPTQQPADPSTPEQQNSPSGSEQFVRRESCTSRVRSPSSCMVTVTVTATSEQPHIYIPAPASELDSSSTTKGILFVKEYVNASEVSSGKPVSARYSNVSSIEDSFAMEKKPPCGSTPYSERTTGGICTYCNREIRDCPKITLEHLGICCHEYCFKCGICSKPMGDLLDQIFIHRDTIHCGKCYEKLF
Briefly: co-IP; PKA RIIα-Flag and Myc-ZNF185 fragments overexpressed in HEK293T cells; lysates on anti-c-Myc magnetic beads for 1 h at 4 °C; blots.

As for “HA-ZNF185 (full-length zinc-finger protein 185) (from UniProt O15231-1 1-689)”, the binding result in assay [1] and in assay [2] was “binds” throughout.

Regarding “PKA RIIα-Flag (from UniProt P13861 1-404)”, the binding result in assay [3] was “binds”.
